Assay results published in the supplement of paper PMC8728848.
The other results are listed elsewhere or left out.

Tests used:
Assay in all cases: glycan array binding signal (z-score within array); higher = stronger binding
Settings in all cases: glycan notation: IUPAC condensed, linker removed
[1] = molecular target: GlcNAc(b1-4)GlcNAc(b1-4)GlcNAc(b1-4)GlcNAc(b1-4)GlcNAc(b1-4)GlcNAc
Outline: (§1)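 The Consortium for Functional Glycomics database supplied 3228 glycan arrays, of which those lacking an available protein sequence were dropped. The binding signal, a within-array Z-score, was averaged across arrays of the same protein sequence and across linkers. Negative scores can be read as non-binding.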

[2] = molecular target: GlcNAc(b1-4)[GlcNAc(b1-6)]GalNAc
Outline: as §1

[3] = molecular target: GlcNAc(b1-6)Gal(b1-4)GlcNAc
Outline: as §1

GlcNAc(b1-6)GalNAc = molecular target: GlcNAc(b1-6)GalNAc
Outline: as §1

GlcNAc3Prop(b1-4)GlcNAc = molecular target: GlcNAc3Prop(b1-4)GlcNAc
Outline: as §1

Kdn(a2-3)Gal(b1-3)GlcNAc = molecular target: Kdn(a2-3)Gal(b1-3)GlcNAc
Outline: as §1

Kdn(a2-3)Gal(b1-4)GlcNAc = molecular target: Kdn(a2-3)Gal(b1-4)GlcNAc
Outline: as §1

[4] = molecular target: Man(a1-2)Man(a1-2)Man(a1-3)Man
Outline: as §1

[5] = molecular target: Man(a1-2)Man(a1-2)Man(a1-6)[Man(a1-3)]Man
Outline: as §1

Man(a1-2)Man(a1-3)Man = molecular target: Man(a1-2)Man(a1-3)Man
Outline: as §1

[6] = molecular target: Man(a1-2)Man(a1-3)[Man(a1-2)Man(a1-6)]Man
Outline: as §1

[7] = molecular target: Man(a1-2)Man(a1-3)[Man(a1-2)Man(a1-6)]Man(a1-6)[Man(a1-2)Man(a1-2)Man(a1-3)]Man
Outline: as §1

[8] = molecular target: Man(a1-2)Man(a1-3)[Man(a1-2)Man(a1-6)]Man(a1-6)[Man(a1-2)Man(a1-2)Man(a1-3)]Man(b1-4)GlcNAc(b1-4)GlcNAc
Outline: as §1

[9] = molecular target: Man(a1-2)Man(a1-3)[Man(a1-6)]Man(a1-6)[Man(a1-2)Man(a1-3)]Man(b1-4)GlcNAc(b1-4)GlcNAc
Outline: as §1

[10] = molecular target: Man(a1-2)Man(a1-6)[Man(a1-3)]Man(a1-6)[Man(a1-2)Man(a1-2)Man(a1-3)]Man
Outline: as §1

[11] = molecular target: Man(a1-2)Man(a1-6)[Man(a1-3)]Man(a1-6)[Man(a1-2)Man(a1-2)Man(a1-3)]Man(b1-4)GlcNAc(b1-4)GlcNAc
Outline: as §1

Man(a1-3)[Man(a1-6)]Man = molecular target: Man(a1-3)[Man(a1-6)]Man
Outline: as §1

[12] = molecular target: Man(a1-3)[Man(a1-6)]Man(a1-6)[Man(a1-2)Man(a1-3)]Man(b1-4)GlcNAc(b1-4)GlcNAc
Outline: as §1

[13] = molecular target: Man(a1-3)[Man(a1-6)]Man(a1-6)[Man(a1-3)]Man
Outline: as §1

[14] = molecular target: Man(a1-3)[Man(a1-6)]Man(a1-6)[Man(a1-3)]Man(b1-4)GlcNAc(b1-4)GlcNAc
Outline: as §1

[15] = molecular target: Man(a1-3)[Man(a1-6)]Man(b1-4)GlcNAc(b1-4)GlcNAc
Outline: as §1

Man(a1-6)Man = molecular target: Man(a1-6)Man
Outline: as §1

Man(b1-4)GlcNAc = molecular target: Man(b1-4)GlcNAc
Outline: as §1

Neu5Ac(a2-3)Gal = molecular target: Neu5Ac(a2-3)Gal
Outline: as §1

[16] = molecular target: Neu5Ac(a2-3)Gal(b1-3)GalNAc
Outline: as §1

[17] = molecular target: Neu5Ac(a2-3)Gal(b1-3)GalNAc(b1-3)Gal(a1-4)Gal(b1-4)Glc
Outline: as §1

[18] = molecular target: Neu5Ac(a2-3)Gal(b1-3)GalNAc(b1-3)Gal(b1-4)GlcNAc
Outline: as §1

[19] = molecular target: Neu5Ac(a2-3)Gal(b1-3)GalNAc(b1-4)[Neu5Ac(a2-3)]Gal(b1-4)Glc
Outline: as §1

[20] = molecular target: Neu5Ac(a2-3)Gal(b1-3)GalNAc6S
Outline: as §1

[21] = molecular target: Neu5Ac(a2-3)Gal(b1-3)GlcNAc
Outline: as §1

B1: E-Selectin (Homo sapiens), P16581 (protein)
chain: MIASQFLSALTLVLLIKESGAWSYNTSTEAMTYDEASAYCQQRYTHLVAIQNKEEIEYLNSILSYSPSYYWIGIRKVNNVWVWVGTQKPLTEEAKNWAPGEPNNRQKDEDCVEIYIKREKDVGMWNDERCSKKKLALCYTAACTNTSCSGHGECVETINNYTCKCDPGFSGLKCEQIVNCTALESPEHGSLVCSHPLGNFSYNSSCSISCDRGYLPSSMETMQCMSSGEWSAPIPACNVVECDAVTNPANGFVECFQNPGSFPWNTTCTFDCEEGFELMGAQSLQCTSSGNWDNEKPTCKAVTCRAVRQPQNGSVRCSHSPAGEFTFKSSCNFTCEEGFMLQGPAQVECTTQGQWTQQIPVCEAFQCTALSNPERGYMNCLPSASGSFRYGSSCEFSCEQGFVLKGSKRLQCGPTGEWDNEKPTCEAVRCDAVHQPPKGLVRCAHSPIGEFTYKSSCAFSCEEGFELHGSTQLECTSQGQWTEEVPSCQVVKCSSLAVPGKINMSCSGEPVFGTVCKFACPEGWTLNGSAARTCGATGHWSGLLPTCEAPTESNIPLVAGLSAAGLSLLTLAPFLLWLRKCLRKAKKFVPASSCQSLESDGSYQKPSYIL
glycan array binding signal (z-score) [1]: -0.075
glycan array binding signal (z-score) [2]: -0.217
glycan array binding signal (z-score) [3]: -0.161
glycan array binding signal (z-score) (GlcNAc(b1-6)GalNAc): -0.302
glycan array binding signal (z-score) (GlcNAc3Prop(b1-4)GlcNAc): 0.018
glycan array binding signal (z-score) (Kdn(a2-3)Gal(b1-3)GlcNAc): -0.154
glycan array binding signal (z-score) (Kdn(a2-3)Gal(b1-4)GlcNAc): -0.076
glycan array binding signal (z-score) [4]: -0.167
glycan array binding signal (z-score) [5]: -0.211
glycan array binding signal (z-score) (Man(a1-2)Man(a1-3)Man): -0.221
glycan array binding signal (z-score) [6]: -0.035
glycan array binding signal (z-score) [7]: -0.201
glycan array binding signal (z-score) [8]: -0.078
glycan array binding signal (z-score) [9]: -0.294
glycan array binding signal (z-score) [10]: -0.102
glycan array binding signal (z-score) [11]: -0.148
glycan array binding signal (z-score) (Man(a1-3)[Man(a1-6)]Man): -0.277
glycan array binding signal (z-score) [12]: -0.13
glycan array binding signal (z-score) [13]: -0.209
glycan array binding signal (z-score) [14]: -0.069
glycan array binding signal (z-score) [15]: -0.141
glycan array binding signal (z-score) (Man(a1-6)Man): 0.01
glycan array binding signal (z-score) (Man(b1-4)GlcNAc): -0.072
glycan array binding signal (z-score) (Neu5Ac(a2-3)Gal): 0.101
glycan array binding signal (z-score) [16]: -0.06
glycan array binding signal (z-score) [17]: -0.173
glycan array binding signal (z-score) [18]: -0.006
glycan array binding signal (z-score) [19]: 0.039
glycan array binding signal (z-score) [20]: 0.154
glycan array binding signal (z-score) [21]: -0.084
